Source: article PMC5892938
Some of the results follow. At the low end of the ranking the order means little.

What follows are sequences tested against GST-SBP-SLBP (stem-loop binding protein) (UniProt Q14493) (assay: targeted RNA Bind-n-Seq). Details: RBNS binding buffer: 25 mM Tris pH 7.5, 150 mM KCl, 3 mM MgCl2, 0.1% Tween, 0.5 mg/mL BSA, 1 mM DTT; 27 nM protein, 750 pM RNA pool; temperature not stated; high values mean tight binding.
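Also: DESeq read counts versus GST-SBP nonspecific binding control pulldown.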

| Sequence | binding signal (log2 fold change) |
| --- | --- |
| GGUCACGUCUCAAUCAACUCUUUUUCCAGGGAAAACCCUGGUAUAUUCAACAGCUCGCAGUCAAG | -0.252 |
| GGUCACGUCUCAAUCAACUCCUUAGAGGGGGGGAAAACCCCUUUACCCUCCUAUUCAACAGCUCGCAGUCAAG | -0.419 |
| GGUCACGUCUCAAUCAACUCUUUUCCCAGGGAAAUCCCUGGUUUAUUCAACAGCUCGCAGUCAAG | -0.0322 |
| GGUCACGUCUCAAUCAACUCCCUCGAGGGGGGGAAAACCCCUUUACCCUCCAAUUCAACAGCUCGCAGUCAAG | -0.339 |
| GGUCACGUCUCAAUCAACUCUACUUCAGGAGUUUUCUCCUGUAAACUCAACAGCUCGCAGUCAAG | -0.0052 |
| GGUCACGUCUCAAUCAACUCUUUCCCCAGGGAAACCCCUGGUUAUGUCAACAGCUCGCAGUCAAG | 0.261 |
| GGUCACGUCUCAAUCAACUCAACUUCCAGGGAAAGCCCUGGCUUACUCAACAGCUCGCAGUCAAG | -0.101 |
| GGUCACGUCUCAAUCAACUCAGUCCCAGGAGUUUUCUCCUGCUAUCUCAACAGCUCGCAGUCAAG | 0.276 |
| GGUCACGUCUCAAUCAACUCAUUCCCAGGAGUUUCCUCCUGCAAAUUCAACAGCUCGCAGUCAAG | 0.0651 |
| GGUCACGUCUCAAUCAACUCAGUUCCAGGAGUUUUCUCCUGCAUUUUCAACAGCUCGCAGUCAAG | -0.0439 |
| GGUCACGUCUCAAUCAACUCAAUCUCCAGGGAAAACCCUGGCAUACUCAACAGCUCGCAGUCAAG | -0.0798 |
| GGUCACGUCUCAAUCAACUCUAUUCCCAGGGAAAACCCUGGCUAUCUCAACAGCUCGCAGUCAAG | -0.352 |
| GGUCACGUCUCAAUCAACUCAAAAGAGGGGGGGAAAACCCCUUUGCCCUCAUCCUCAACAGCUCGCAGUCAAG | -0.128 |
| GGUCACGUCUCAAUCAACUCUUCUCCCAGGGAAACCCCUGGCAAUUUCAACAGCUCGCAGUCAAG | -0.0153 |
| GGUCACGUCUCAAUCAACUCUAUCUCAGGAGUUUACUCCUGCUUUCUCAACAGCUCGCAGUCAAG | 0.117 |
| GGUCACGUCUCAAUCAACUCCAUAGAGGGGGGGAAAACCCCUUUACCCUCCCAAUCAACAGCUCGCAGUCAAG | 0.282 |
| GGUCACGUCUCAAUCAACUCUUCUCCAGGAGUUUACUCCUGCUAUUUCAACAGCUCGCAGUCAAG | -0.0584 |
| GGUCACGUCUCAAUCAACUCUAUUUCAGGAGUUUUCUCCUGUAUACUCAACAGCUCGCAGUCAAG | 0.176 |
| GGUCACGUCUCAAUCAACUCUACUCCAGGAGUUUCCUCCUGUAAUCUCAACAGCUCGCAGUCAAG | 0.0869 |
| GGUCACGUCUCAAUCAACUCCAUAGAGGGGGGGAAAACCCCUUUACCCUCAAAAUCAACAGCUCGCAGUCAAG | 0.222 |
